± gives the standard deviation. This is a selection; strong and weak results do not stand in their true shares.

The assay concerns MIWI (PIWIL1) piRISC loaded with L1MC piRNA (30 nt). As to the kind of experiment: pre-steady-state target cleavage rate (min^-1); MIWI and MILI are mouse PIWI proteins and EfPiwi is from a freshwater sponge; tags in brackets are library labels; higher = faster piRNA-guided slicing of the target. To be noted: guide: L1MC piRNA 5'p-UAACUAAAUACUAUGCAAGCUGUAGGUCCU; auxiliary factor: 500 nM mouse GTSF1. In a few lines:
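Cleave-'n-Seq: a transcribed, DNA-blocked target RNA library (0.1 nM) was mixed with 1 nM active affinity-purified piRISC carrying one synthetic guide, with or without 500 nM GTSF1 partner protein, in HEPES–potassium acetate buffer at 33 °C for 0–8 or 0–960 min. Uncleaved targets were sequenced and normalised to depth and to weakly complementary targets. Three trials were pooled, and k3 was capped at 0.0001 min^-1. The pre-steady-state cleavage rate came from a burst-and-steady-state fit.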
With UCCUGGAUGAGCUUCCAUAGUAUUUAGUAA, the “pre-steady-state target cleavage rate” value was determined as 0.017 ± 0.0076.

On to UCGACCUACAGCAAGCAUAGUAUUUAGAAA, for which the “pre-steady-state target cleavage rate” value stood at 0.349 ± 0.041. The result for UCCACCUACAGCUUGCAUAGUAUUAUGAAA reads 0.234 ± 0.04; that for UCCUGGAUGUCGAACCAUAGAAUUUAGUUA, less than 0.0001; that for UCCUGGUACAGCUACGAUAGUAUUUAGUAA, 0.0155 ± 0.0064.

With UCCUGGAUGUCGAUGCAUGGUAUUUAGUUA, the “pre-steady-state target cleavage rate” value was determined as 0.00397 ± 0.0034. The result for UGGACCUACAGCUUGCAUUCUAUUUAGAAA reads 0.0175 ± 0.006; that for UCCUGCUAGUGCUUGCAUAGUAUUUACAAA, 0.0777 ± 0.02. Consider UCCUGGAUCAGGAAGCAUAGUAUUUAGUUA, for which the “pre-steady-state target cleavage rate” value amounted to 0.00993 ± 0.0028. On to UCCUCCUACAGCUUGCAUAGUUAAUAGUAA, for which the “pre-steady-state target cleavage rate” value stood at 0.0859 ± 0.025. The result for UCCUGCUACAGCAACCAUAGUAUUUAGUAA reads 0.172 ± 0.037; that for UCCUGGAACAGCUUGCAUAGUAUUUUCAAA, 0.214 ± 0.034; that for UCCUGGAACACCAUGCAUAGUAUUUAGUUA, 0.212 ± 0.051. The result for UCCUGGAUGUCCUUGUCAUAGUAUUUAGUUA reads 0.00692 ± 0.0045; that for AGGACCUACAGCUUGCGAUAGUAUUUAGUUA, 0.108 ± 0.026; that for “UCCUGGUACAGCUUGCAUAGUUAAAUCAAA [g10:g24:cont:t1A]”, 0.018 ± 0.0084. The same measure for UCCUGGAUGUGCUUGCAUUGUAAUUAGUUA: 0.00438 ± 0.0035; for UCCUGCUACAGCUUGCAUAGUAAUUAGAAA: 0.212 ± 0.036; for AGGACCUACAGCAUGCAUAGUAUUUUCAAA: 0.436 ± 0.062.

For UCCUGGAACAGCAUGCAUAGUAUUUUCAAA, the “pre-steady-state target cleavage rate” value is 0.212 ± 0.036. The same measure for UCCUGGUACUCCUUGCAUAGUAUUUUCAAA: 0.0158 ± 0.0069; for UCCUGGAUGUCGCUGCAUAGUAUUUAGUUA: 0.00886 ± 0.0026; for UCGACCUACAGCUUGCAAUGUAUUUUCAAA: 0.0886 ± 0.026. The same measure for UCCACCUACAGCUUGCAUAGUAAAUACAAA: 0.155 ± 0.037; for UCCUGGAUGUCCUUGCAUAGUAUUUUGAUA: 0.00674 ± 0.0041. Turning to UCCUGGAUGUCCUUGCAUAGUAUAAAGUUA, the “pre-steady-state target cleavage rate” value came to 0.00941 ± 0.0045. The same measure for UCCACCUACAGCUACCAUAGUAUUUUCAAA: 0.012 ± 0.0064; for UCGACCUACAGGAAGCAUAGUAUUUAGAAA: 0.181 ± 0.028. Regarding UCGACCUACAGCAUGCAUAGUAUUUACAAA, the “pre-steady-state target cleavage rate” value turned out to be 0.527 ± 0.067. Turning to UCCUGGUACAGCUUGCUAAGUAUUUUCAAA, the “pre-steady-state target cleavage rate” value is 0.00472 ± 0.0045. The result for UCCUGGAUGAGCUUGCAUAGUAAAUAGUAA reads 0.0157 ± 0.0069. The same measure for UGGACCUACACGUUGCAUAGUAUUUACAAA: 0.103 ± 0.013; for UCCUCCUACAGCUUGCAAUGUAUUUAGUAA: 0.284 ± 0.024. For UCCUGGAACAGCUUCCAUUGUAUUUAGUUA, the “pre-steady-state target cleavage rate” value stood at 0.112 ± 0.015.

As for UCCUGGAUGUCGUUACAUAGUAUUUAGUUA, the “pre-steady-state target cleavage rate” value is 0.00793 ± 0.0028. The same measure for UCCACCUACAGCUUGGUUAGUAUUUUCAAA: 0.0329 ± 0.012; for UCCUGCUACAGCUUCGAUAGUAUUUAGAAA: 0.0608 ± 0.015; for UCCUGCUACAGCUAGCAUAGUAUUUAGAUA: 0.357 ± 0.043. The result for UGGACCUACAGCUUGCAUAGUAAAUACAAA reads 0.0451 ± 0.014.

Source of the values: the supplement of paper PMC10338343.
